Data published in ChEMBL document CHEMBL4888484, “Replenishing the malaria drug discovery pipeline: Screening and hit evaluation of the MMV Hit Generation Library 1 (HGL1) against asexual blood stage Plasmodium falciparum ,using a nano luciferase reporter read-out” (2022).
Hit rate of the full screen: of about 150,000 compounds, about 540 (0.36%) showed an effect of 50% or more. Some of the results follow.

system: Plasmodium falciparum; assay: Primary screen in NF54 nanoGlo assay, in single point, at 2uM, 72h; a lower Z score goes with more inhibition; type: functional, Erythrocyte; settings: timepoint 72 hour

SMILES	% Inhibition [%]	Z score
Cc1nc(N(C)CC2(CO)CCOCC2)cc([C@H]2C[C@@H](O)C2)n1	-6	1.02
C[C@](O)(CNS(=O)(=O)CCC(F)(F)F)c1cc2ccccc2o1	-7	0.87
Cn1nccc1-c1ccnc2nc(C3CCC3)nn12	-3	0.41
COCC[C@@H](CN(C)C1CCC1)NC(=O)OC(C)(C)C	-3	0.45
CN(Cc1csc(CNC(=O)c2ccccc2)n1)C1(CO)CCOCC1	-13	1.99
Cc1ncc(C)c(N2CCCC3(CCOCC3)C2)n1	-4	0.61
C=CCn1cc([C@@H]2C[C@H](NC(=O)c3ccccc3)C[C@H](CC)O2)c(C)n1	-11	1.29
Cc1sc(-c2ccccc2Cl)nc1C(=O)NCCc1cnc[nH]1	-6	0.93
CC1CN(C(=O)C#Cc2ccccc2)CC2(CCOC2C)O1 (centres undefined)	2	-0.24
CCOc1ccc(Cc2nn(C(C)=O)c3c2C(=O)CC(C)(C)C3)cc1OCC	35	-3.99
CC1CCN(S(=O)(=O)c2ccc(CC(=O)N3CCOCC3)s2)CC1	3	-0.54
C#Cc1cc(C(F)(F)F)cc(C#N)c1N	31	-0.81
COC(=O)CN(Cc1cccnc1)CC(C)C	-1	0.1
C[C@@H](c1ccncn1)N(C)CC(=O)N1CCOCC1	-8	1.04
Cc1ccc2c(c1)NC(=O)c1cc(NS(=O)(=O)CCN3C(=O)CCCC3=O)ccc1O2	-4	0.58
CC(C)[C@H](CC(=O)O)NCc1ccccc1Cl	-5	0.85
Fc1ccccc1N1CCC2(CC1)NCCc1[nH]cnc12	-5	0.74
O=C(NCC1CCOCC1)c1ccc(-c2ccc(Cl)cn2)cc1	7	-1.01
OCC1(CN[C@@H]2C=CC3(CCCCC3)CC2)CCOCC1	-8	1.25
Cc1ccc(S(=O)(=O)N[C@@H]2COc3ccc(Br)cc3C2)c(C)c1	0	0
N#Cc1cc(N2CC[C@]3(CCOC3)C2)nc2ccccc12	-13	1.59
CC(C)(C(=O)NCCc1cn[nH]c1)N1CCCC1	-13	1.13

SMILES	% Inhibition [%]	Z score
CO[C@H]1[C@@H]2CC[C@H]1CN(C(=O)CCc1nc3ccccc3[nH]1)C2	-1	0.09
Cn1nc(-c2nc(-c3cccc(F)c3)no2)c2c1CCN(C(=O)c1ccccn1)C2	12	-1.38
CCCCc1nc(CN2C[C@@H]3CC[C@H]2CN(C(=O)c2ccccc2)C3)c[nH]1	2	-0.45
CC(C)N(C(=O)[C@H](C)S(C)(=O)=O)c1cccc(C(F)(F)F)c1	7	-1.02
NC(=NS(=O)(=O)c1ccc(Cl)cc1)C(Cl)(Cl)Cl	-23	4.26
CCc1cc(C(=O)NCCc2cccs2)nc2cc(-c3ccccn3)nn12	-15	2.03
O=C(Cn1c(=O)n(CCc2cccs2)c(=O)c2sccc21)Nc1ccc2c(c1)OCCO2	-1	0.18
Cc1ccc2nc(-c3ccc(NC(=O)c4ccc5ccccc5c4)cc3)oc2c1	-18	3.33
COC(CS(=O)(=O)NC1CCCS(=O)(=O)C1)c1ccccc1 (centres undefined)	3	-0.44
O=C1CC[C@H](C(=O)N2CCCCO2)CN1CCN1CCOCC1	-15	1.87
O=C(c1cc2ncccc2o1)N1CCO[C@H]2COCC[C@H]21	-11	1.21
CCC[C@H]1CN(C(=O)c2cn[nH]c2)CCN1C(=O)c1cn[nH]c1	-6	0.59
CC(=O)NC[C@H]1CCC2(CCN(c3nc4c(s3)c(C)nn4C)CC2)O1	1	-0.25
O=C1CCCN1CC1CCN(C(=O)c2ccc(-c3cn[nH]c3)nc2)CC1	-12	1.73
Cc1cc(C(=O)Cn2cnc(C#N)c2C#N)ccc1F	26	-2.94
Cc1nc(CN(C)Cc2cccnc2N)cs1	-16	1.46
Cc1ccc(-n2c(=O)[nH]c3nc(-n4ccnc4)ncc3c2=O)cc1F	-4	0.55
Cc1cc(C)cc(NC(=O)C2=NCCN2)c1	-22	2.62
COc1cccc(NC(=O)Nc2ccc3c(c2)CN(Cc2ccc(Cl)cc2)C(=O)[C@H](C)O3)c1	-6	0.65
O=C(NCCCc1cnc2ncnn2c1)c1cc(-c2ccc(F)cc2)c[nH]1	9	-1.64
O=C(c1ccc(OC2CCC2)cc1)N1CCCCC1	-21	2.11
O=C1CN(c2nc(C(F)(F)F)nc3ccsc23)CCN1	-5	0.68

SMILES	% Inhibition [%]	Z score
CN(c1nc2cccc(F)c2s1)C1CCN(c2cnccn2)CC1	-13	1.37
Cn1cncc1-c1ccc(C(=O)NC[C@H]2CCCO2)cc1	-14	2.55
COc1cc(C(F)(F)F)ncc1NC(=O)CC[C@H]1CCCOC1	-7	1.17
C[C@H](NC(=O)N(C)C1CC1)c1noc(Cc2ccccc2)n1	-7	0.93
Cc1ccc(S(=O)(=O)c2cn(CC(=O)Nc3ccc(C)c(C)c3)c3nc(C)ccc3c2=O)cc1	-12	1.24
CC1OCCCC1C(=O)N1CCNC(=O)C1C (centres undefined)	-6	0.93
O=C(Nc1ncc(Br)cn1)OCC(F)(F)F	6	-0.66
Cc1nnccc1C(=O)N1C[C@@H](CO)Cc2cccc(F)c21	-7	0.85
c1ccc(-c2cn3c4ccccc4nc3n2CCN2CCCCC2)cc1	-3	0.38
CN(Cc1cnn(C)c1)C(=O)c1ccc2c(c1)CCC2	-11	1.45
COc1cc2ccccc2cc1C(=O)Nc1ccc(-c2nc3cc(Cl)ccc3o2)cc1	-9	1.52
COc1ccccc1NC(=O)c1cnn2c1NC(C(=O)O)=C[C@H]2c1ccccc1Cl	10	-1.85
Cc1noc(C)c1C(=O)NC[C@H]1Cc2ccccc21	-5	0.45
CC(C)(C)C(=O)Nc1cnccc1[C@@H](NCCCO)C(F)(F)F	-6	0.8
CCn1nnnc1NC(=O)N[C@H]1CCCc2ccccc2C1	-2	0.37
Cc1nc(C(=O)OCc2ccc(OC(F)F)cc2)c2n1CCCC2	-10	0.96
O=C(CCc1ccccc1)N1CC(Oc2cccnc2)C1	-10	1.83
CN(Cc1noc2c1CC(C)(C)CC2)c1cccc(CC(=O)O)c1	-12	2.11
CCCS(=O)(=O)N(C)CC(=O)NCc1sccc1C	-5	0.55
Cc1ccc2nc(NC(=O)CS(=O)(=O)Cc3ccccc3)sc2c1	-9	1.8
O=C(NC[C@H]1CCOC1)c1ccc(Br)o1	-13	2.1
COc1cccc(CN2CCc3nc(N4CCCC4)ncc3C2)c1	-4	0.53

SMILES	% Inhibition [%]	Z score
C[C@@H](COc1ccccc1F)NC(=O)NC1CCC(O)CC1 (some centres undefined)	2	-0.26
COCCOCCC(=O)NC1C(C)CCCC1C (centres undefined)	-11	1.45
Cc1cc(CN2CCC3(CC2)C[C@@H]3c2nnc3n2CCCCC3)on1	-8	1.43
COc1ccccc1COC(=O)Nc1c(C)nn(C)c1Cl	2	-0.32
O=C(c1ccccc1S(=O)(=O)N1CCc2cc(F)ccc21)N1CCOCC1	-9	1.07
Cc1cc(NS(=O)(=O)c2cccc(C(=O)NCc3ccc(F)c(C)c3)c2)no1	0	-0.04
C[C@H]1CCC(=O)N1c1ccc(NC(=O)C2CCOCC2)cc1	-4	0.84
COc1ccc(-c2cc3c(=O)n(CCNC(=O)c4ccc(OC)nc4)ccn3n2)cc1	3	-0.43
COC[C@@H]1CN(C(=O)c2ccc(F)cc2Cl)C[C@H]1c1ccccn1	-11	1.78
CCn1ccnc1CN(C)c1nc(-c2cccnc2)nc2c1c(C)nn2C	-6	1.15
CCCCNC(=O)N1CC(C(=O)NCC2CC2)CCC1c1ccc(F)c(C)c1 (centres undefined)	-23	2.19
CN(C[C@H](O)c1ccccc1)C(=O)Cn1nnnc1CN1CCCCCC1	-17	2.85
CC(=O)NCCCN(C)C(=O)C(C)(C)c1ccc(C)cc1	2	-0.34
COCCN1C[C@@H](Cc2ccc(C(=O)N3CCCCC3)cn2)CC1=O	-1	0.2
O=C(Cc1c(F)cccc1F)Nc1cncnc1-n1cccn1	-12	1.51
CCOC(=O)c1nnsc1Nc1ccc(C)c(C)c1	-9	1.17
O=c1[nH]nc(CCn2ccnc2-c2ccccc2-c2ccco2)[nH]1	-14	1.58
CCn1cc(CN2CCC3(CC[C@@H]3OCc3nc(C)no3)CC2)c(C)n1	-6	0.84
Cc1ccc(-c2nc3nc(C)c(CC(=O)Nc4cccc(Cl)c4C)c(C)n3n2)cc1	-8	1.13
CO[C@H]1COCC[C@@H]1NC(=O)CCc1cn[nH]c1	-5	0.84
CC(C)c1ccc(NS(=O)(=O)c2ccc(-c3cnc(C4CC4)o3)cc2)cc1	-11	2.11
